{"source": "the RNAGym collection of RNA variant scans (doi:10.1073/pnas.2313332121)", "parents": {"B1": {"name": "TPR 5TU (parent)", "chain": "GGAUCUUCUCGAUCUAACAAAAAAGACAAAUCUGCCACAAAGCUUGAGAGCAUCUUCGGAUGCAGAGGCGGCAGCCUUCGGUGGCGCGAUAGCGCCAACGUUCUCAACUAUGACACGCAAAACGCGUGCUCCGUUGAAUGGAGUUUAUCAUG"}}, "note": "Variants at the background level are over-represented here."}
{"variants_of": "B1", "test": "polymerase ribozyme fitness, log enrichment relative to wild type (log ratio); higher = more active; in vitro selection for triplet polymerase activity", "in_short": "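Only genotypes with ≥10 input reads and ≥1 read per output were kept after Illumina sequencing of input and output libraries. These libraries were PCR-built, transcribed mutants of each subunit of a heterodimeric triplet polymerase ribozyme, each put through one triplicate in vitro selection round with frozen incubation at −7 °C, gel excision of extended constructs, streptavidin-bead capture and RT-PCR. Fitness is a logarithmic ratio of genotype enrichment to wild-type enrichment, from inverse-variance-weighted replicate averages, with the logarithm in base 2.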"}
{"variant": "U4G U7C A12G A22U C43G C99G A106C", "polymerase ribozyme fitness (log ratio)": "≤ -4.2"}
{"variant": "U4A U6A A17U A30U C105U U134G", "polymerase ribozyme fitness (log ratio)": "≤ -4.2"}
{"variant": "U4G A49C G58A", "polymerase ribozyme fitness (log ratio)": "≤ -4.2"}
{"variant": "U4C C27A U45G C51G G83A G88U U111G U135A", "polymerase ribozyme fitness (log ratio)": "≤ -4.2"}
{"variant": "C5G A12C U61A C95U C125G A142C", "polymerase ribozyme fitness (log ratio)": "≤ -4.2"}
{"variant": "C5G A17G A24C C93G A107G C125A", "polymerase ribozyme fitness (log ratio)": "≤ -4.2"}
{"variant": "C5G A24C C27U G86A C96G", "polymerase ribozyme fitness (log ratio)": "≤ -4.2"}
{"variant": "U4G U31C G59C G68C G83A C99U", "polymerase ribozyme fitness (log ratio)": "≤ -4.2"}
{"variant": "C5A C51U G68A C96U G143C", "polymerase ribozyme fitness (log ratio)": "≤ -4.2"}
{"variant": "U4G U15G C57G C87A", "polymerase ribozyme fitness (log ratio)": "≤ -4.2"}
{"variant": "U4G G83C G140A U148A", "polymerase ribozyme fitness (log ratio)": "≤ -4.2"}
{"variant": "C5A A22U C43U C87G C95U C116G", "polymerase ribozyme fitness (log ratio)": "≤ -4.2"}
{"variant": "C5G A21G U44A G83C C103G", "polymerase ribozyme fitness (log ratio)": "≤ -4.2"}
{"variant": "U4C G11C G42U G88C G92U G117U U135G", "polymerase ribozyme fitness (log ratio)": "≤ -4.2"}
{"variant": "C5A A47G A73G G83C C87U G152C", "polymerase ribozyme fitness (log ratio)": "≤ -4.2"}
{"variant": "U4C C8A U45A C72U C79U C93U", "polymerase ribozyme fitness (log ratio)": "≤ -4.2"}
{"variant": "C5G A41C G50C U55A C85G", "polymerase ribozyme fitness (log ratio)": "≤ -4.2"}
{"variant": "C5A A52U A138G", "polymerase ribozyme fitness (log ratio)": "≤ -4.2"}
{"variant": "C5A A64U G67A A97U A120U A121G C149G", "polymerase ribozyme fitness (log ratio)": "≤ -4.2"}
{"variant": "U4G A40C C51A A52C A107U U139G", "polymerase ribozyme fitness (log ratio)": "≤ -4.2"}
{"variant": "C5A G11C C85U A119C C131G G141C", "polymerase ribozyme fitness (log ratio)": 0.451}
{"variant": "C5A C27G A40G U56A C75G U77A A119U", "polymerase ribozyme fitness (log ratio)": "≤ -4.2"}
{"variant": "C5G A20C A66G U144A", "polymerase ribozyme fitness (log ratio)": "≤ -4.2"}
{"variant": "U4G A40G G46C A47C C87G U146G", "polymerase ribozyme fitness (log ratio)": "≤ -4.2"}
{"variant": "U4G A30G A66G C85U G140C", "polymerase ribozyme fitness (log ratio)": "≤ -4.2"}
{"variant": "U4C C5A A20G A22U A24U A60G C87G U139G", "polymerase ribozyme fitness (log ratio)": "≤ -4.2"}
{"variant": "U4G U9G A22C G62C G88A C95G G117U A122G A137C", "polymerase ribozyme fitness (log ratio)": "≤ -4.2"}
{"variant": "C5G A12U A28U U44G G94A G117U A147G", "polymerase ribozyme fitness (log ratio)": "≤ -4.2"}
{"variant": "U4G A12U C76G A89U C96U", "polymerase ribozyme fitness (log ratio)": "≤ -4.2"}
{"variant": "C5G A29G C93U C108G G136U", "polymerase ribozyme fitness (log ratio)": "≤ -4.2"}
{"variant": "C5G A17G C35A A47C G58U C95U A137C G140A", "polymerase ribozyme fitness (log ratio)": "≤ -4.2"}
{"variant": "C5A A66G C96U A115G U139G G140A", "polymerase ribozyme fitness (log ratio)": "≤ -4.2"}
{"variant": "C5A U33C C38U G48A C57A G59C", "polymerase ribozyme fitness (log ratio)": "≤ -4.2"}
{"variant": "U4C G34C A60U C69A C99A G141C", "polymerase ribozyme fitness (log ratio)": "≤ -4.2"}
{"variant": "C5A G80A G83U G124C U139C", "polymerase ribozyme fitness (log ratio)": "≤ -4.2"}
{"variant": "C5A G59A C76U U77A G84A C118G C132G", "polymerase ribozyme fitness (log ratio)": "≤ -4.2"}
{"variant": "U4C A17U G25U C57U A91C A97C C99U A122C C125U U139G U144G U148G", "polymerase ribozyme fitness (log ratio)": "≤ -4.2"}
{"variant": "C5A G62A G74U A89U C93G A110G A120U C123U", "polymerase ribozyme fitness (log ratio)": "≤ -4.2"}
{"variant": "C5G A16G C96A U148A", "polymerase ribozyme fitness (log ratio)": "≤ -4.2"}
{"variant": "U4G A41C C69A C79G G92A", "polymerase ribozyme fitness (log ratio)": "≤ -4.2"}
{"variant": "C5A A37U G84A U135A U139A G141C", "polymerase ribozyme fitness (log ratio)": "≤ -4.2"}
{"variant": "U4C C38A G71U G100U", "polymerase ribozyme fitness (log ratio)": "≤ -4.2"}
{"variant": "C5A A16C A19U U61A", "polymerase ribozyme fitness (log ratio)": -2.61}
{"variant": "C5A C8A C10U G48A G58C U78G C95A", "polymerase ribozyme fitness (log ratio)": "≤ -4.2"}
{"variant": "U4G C8U A40C A49U G92U A106G G140C", "polymerase ribozyme fitness (log ratio)": "≤ -4.2"}
{"variant": "U4C G48C C79A U82C C85G A122C U151G", "polymerase ribozyme fitness (log ratio)": "≤ -4.2"}
{"variant": "C5A C36U C79U A121G", "polymerase ribozyme fitness (log ratio)": "≤ -4.2"}
{"variant": "U4C C27G A28C C51U U53A A60G C63G G74A G81C C93A", "polymerase ribozyme fitness (log ratio)": "≤ -4.2"}
{"variant": "U4G C27G G80C C93A U127C G143A U144C", "polymerase ribozyme fitness (log ratio)": "≤ -4.2"}
{"variant": "U4C C54G G58A C79U G86U C87U C93A U135A G136C", "polymerase ribozyme fitness (log ratio)": "≤ -4.2"}
{"variant": "C5A U7C A26C U44A G58U A73C C87A A121C", "polymerase ribozyme fitness (log ratio)": "≤ -4.2"}
{"variant": "C5A G46C U90A", "polymerase ribozyme fitness (log ratio)": "≤ -4.2"}
{"variant": "C5A G25C A41C C85U A89C A115G C132G U146C U148G", "polymerase ribozyme fitness (log ratio)": "≤ -4.2"}
{"variant": "U4C A49U C54A C85U C87A U104C", "polymerase ribozyme fitness (log ratio)": "≤ -4.2"}
{"variant": "C5G A24C A28U A29U G50U G83C G126A U146A", "polymerase ribozyme fitness (log ratio)": "≤ -4.2"}
{"variant": "U4G C10U U13C A19U C32U U55C C76A G94U C105U C149U", "polymerase ribozyme fitness (log ratio)": "≤ -4.2"}
{"variant": "C5A U6G U82C C95G", "polymerase ribozyme fitness (log ratio)": -2.28}
{"variant": "U4G A24G A26C C38U C54G G58A A60C G71U G92C", "polymerase ribozyme fitness (log ratio)": "≤ -4.2"}
{"variant": "U4C C8A U56A C85G C93G G141A A147C U148C", "polymerase ribozyme fitness (log ratio)": "≤ -4.2"}
{"variant": "C5A C99U", "polymerase ribozyme fitness (log ratio)": -0.267}
{"variant": "C5G A21U A29U C32U U53A A60G G74U", "polymerase ribozyme fitness (log ratio)": "≤ -4.2"}
{"variant": "U4A G92U", "polymerase ribozyme fitness (log ratio)": -0.358}
{"variant": "U4C A40C U45G G46A G84U C96G C118U U144A", "polymerase ribozyme fitness (log ratio)": "≤ -4.2"}
{"variant": "U4G A26U C38A U55A G94A A119G G128U U134A", "polymerase ribozyme fitness (log ratio)": "≤ -4.2"}
{"variant": "U4C C10A A19G U55A G92A G143U", "polymerase ribozyme fitness (log ratio)": "≤ -4.2"}
{"variant": "C5A A17U G83A U146G", "polymerase ribozyme fitness (log ratio)": -0.599}
{"variant": "C5A A12C A19U U102G C116A A119G U135A G136C", "polymerase ribozyme fitness (log ratio)": "≤ -4.2"}
{"variant": "C5A G58A G86U", "polymerase ribozyme fitness (log ratio)": -1.52}
{"variant": "C5A C10G A89U U134C A137U A147U A150U", "polymerase ribozyme fitness (log ratio)": "≤ -4.2"}
{"variant": "C5A A21U C32U C38G G50A C57A G59A A89G U145C", "polymerase ribozyme fitness (log ratio)": "≤ -4.2"}
{"variant": "U4G A19U U33A A40C C95U U135G", "polymerase ribozyme fitness (log ratio)": "≤ -4.2"}
{"variant": "U4G C75G A91U G92A U101G C125U", "polymerase ribozyme fitness (log ratio)": "≤ -4.2"}
{"variant": "U4G A52G G70A A107C G126A", "polymerase ribozyme fitness (log ratio)": "≤ -4.2"}
{"variant": "C5A A20C C32U A49U A91G C108G A121U", "polymerase ribozyme fitness (log ratio)": "≤ -4.2"}
{"variant": "U4C G25U A40C A41U G50C U55A U82C G141A", "polymerase ribozyme fitness (log ratio)": "≤ -4.2"}
{"variant": "C5A C57G C75U G86A A91C", "polymerase ribozyme fitness (log ratio)": -4.01}
{"variant": "U4C A73G U78A G94U G126A C132G", "polymerase ribozyme fitness (log ratio)": "≤ -4.2"}
{"variant": "U4G C14U A52G C85G G133U", "polymerase ribozyme fitness (log ratio)": "≤ -4.2"}
{"variant": "U4G G42A C54A G58C C93G G126A G140A", "polymerase ribozyme fitness (log ratio)": "≤ -4.2"}
{"variant": "U4C C5G C36A G58C C85G G94C A97C G126U", "polymerase ribozyme fitness (log ratio)": "≤ -4.2"}
{"variant": "C5A A20C C96U", "polymerase ribozyme fitness (log ratio)": -0.294}
{"variant": "U4C A16G A29U U56A A73G A91G U111G G133A", "polymerase ribozyme fitness (log ratio)": "≤ -4.2"}
{"variant": "U4G A29C G65U G71A C76U C108A U134G", "polymerase ribozyme fitness (log ratio)": "≤ -4.2"}
{"variant": "U4G C32G C105U A150C", "polymerase ribozyme fitness (log ratio)": "≤ -4.2"}
